# According to PubChem BioAssay AID624296 (National Center for Advancing Translational Sciences (NCATS), 2012):
# Hit rate of the full screen: of about 350,000 compounds, about 9,900 (2.8%) were called active. Inconclusive results, whose numbers are uncertain, are shown with a selection of clear calls. Calls follow the shape of the dose curve; as a rule, active = well fitted activation curve with a large enough effect; inconclusive = small, poorly fitted or top-dose-only effect; inactive = no such curve, though single readings can be large or run the other way. Potencies of inconclusive entries are left out as doubtful fits.
# Assay: A quantitative high throughput screen for small molecules that induce DNA re-replication in MCF 10a normal breast cells. Also: nearly all actives have a fitted effect of over 50% in size. As to activity, positive = re-replication: % of control where 0% means no effect.
# Conditions: MCF 10A DNA re-replication, Hoechst nuclear intensity, 48 h; activity, positive = re-replication: at 46.1 µM (top of the series)
# Potency is read from the fitted curve at half-maximal effect; tags tell the direction and shape of the fitted curve.
SMILES,Potency,"activity, positive = re-replication"
Cc1ccc(OCC(=O)Nc2ccc(C)c(F)c2)c([N+](=O)[O-])n1,inactive,
Cn1nc(C(=O)Nc2cccc(C(F)(F)F)c2)c2ccccc2c1=O,inactive,
CCCn1c(=O)c(C(=O)NCCc2ccc(OC)c(OC)c2)c(O)c2ccccc21,active: 1.03 µM,
CC(=O)c1ccc(NC(=O)C(C)Oc2ccc(N(C)S(=O)(=O)c3ccc(C)cc3)cc2)cc1 (stereo not drawn),"inconclusive [activator, full curve, poor fit]",
CC1=NN(c2ccc(C(=O)O)cc2)C(=O)/C1=C\c1ccc(OC(=O)c2cccs2)cc1,"inconclusive [activator, single point]",
COc1ccc(NC(=S)N2CCN(Cc3ccc(C)cc3)CC2)cc1,"inconclusive [activator, single point]",
CCOc1ccc(-n2cc(C(=O)NC(C)C)c3cc(OC)c(OC)cc3c2=O)cc1,"inconclusive [activator, single point]",
CCCCc1cc(=O)oc2cc(OC(C)C(=O)NCC3CCC(C(=O)O)CC3)c(Cl)cc12 (stereo not drawn),"inconclusive [activator, single point]",
COCCN(CC(=O)Nc1cc(Cl)ccc1-n1cncn1)Cc1nc2ccccc2c(=O)[nH]1,inactive,
Cc1ccc(-n2nnnc2-c2cnoc2-c2cccc(F)c2)cc1,"inconclusive [activator, full curve, poor fit]",
Cc1cc(NC(=O)COc2ccccc2)n(-c2ccccc2)n1,inactive,
COc1cc(CNc2ccc(N3CCN(C(C)=O)CC3)cc2)ccc1OCc1ccccc1,inactive,
O=C(CSc1nncn1-c1ccccc1)NC1CCCc2ccccc21 (stereo not drawn),inactive,
CC(C)CN1CCN(Cc2cc3ccccc3[nH]2)CC1CCO (stereo not drawn),"inconclusive [activator, single point]",
Cc1ccc(C)c(NC(=O)CCN2CCc3ccccc3C2)c1,"inconclusive [activator, single point]",
COc1cc(C(=O)NCCCCc2ccccc2)cc(OC)c1OC,inactive,
COC(=O)CN1C(=O)C2(C(C#N)=C(N)Oc3c2c(C)nn3-c2ccccc2)c2ccccc21 (stereo not drawn),"inconclusive [activator, single point]",
COc1ccc(C(=O)/C=C/c2ccc(N(C)C)cc2)c(OC)c1,active: 16.4 µM,
COc1ccc(C2=CC3=C(Br)C(=O)C(C)(OC(=O)c4ccco4)C(=O)C3=CO2)cc1 (stereo not drawn),inactive,
CC(C)c1nnc(NC(=O)COc2ccc3c(c2)OCO3)s1,"inconclusive [activator, single point]",
O=C(COC(=O)C1(c2cccc(F)c2)CCCC1)NCc1ccc2c(c1)OCO2,"inconclusive [activator, partial curve, poor fit]",
O=C(CSC1=NCCN1)NC(c1ccccc1)c1ccccc1,"inconclusive [activator, single point]",
COc1ccc(N)cc1C#N,inactive,

SMILES,Potency,"activity, positive = re-replication"
O=c1cc(-c2ccccc2)[nH]n1-c1ccccc1,"inconclusive [activator, single point]",
Cc1ccc(C)c(C(=O)CN2C(=O)c3ccccc3C2=O)c1,inactive,
Cc1ccc(C2N(c3cccc(Cl)c3)C(=O)N3CCCN23)cc1 (stereo not drawn),inactive,
c1ccc(-c2nc(N3CCCCCC3)c3ccccc3n2)nc1,"inconclusive [activator, partial curve, poor fit]",
Cc1nn(-c2ccccc2)c(/N=C/c2ccc(O)cc2)c1-c1ccccc1,"inconclusive [activator, single point]",
O=C(Cc1cccc(NC(=O)C2CCN(C(=O)C3CCCC3)CC2)c1)Nc1cccc(C(=O)N2CCCCC2)c1,"inconclusive [activator, partial curve, poor fit]",
COc1ccc(S(=O)(=O)N2CCN(C(=O)c3ccc([N+](=O)[O-])o3)CC2)cc1,"inconclusive [activator, partial curve, poor fit]",
O=c1oc2ccc(Br)cc2cc1S(=O)(=O)c1ccc(F)cc1,active: 5.17 µM,
Cn1cnnc1SC/C(O)=C(\C#N)c1nc2ccccc2[nH]1,inactive,
Cn1c2ccccc2c2cc(/C=N/NC(=O)c3ccc(N)cc3)ccc21,"inconclusive [activator, single point]",
COc1ccc(CCNC(=O)c2c(O)c3cccc4c3n(c2=O)CC4)cc1,"inconclusive [activator, full curve, poor fit]",
O=C(NC(=S)N1CCOCC1)c1cc2ccccc2o1,"inconclusive [activator, single point]",
O=C(CN1C(=O)c2ccccc2C1=O)Nc1cccc([N+](=O)[O-])c1,"inconclusive [activator, partial curve, poor fit]",
CN(C)c1ccc(/C=c2/sc3n(c2=O)NC2(c4ccccc4)N(C)C(=O)N(C)C2(c2ccccc2)N=3)cc1 (stereo not drawn),,inconclusive: 22.4% [activator]
Cc1ccccc1Cn1ccc(NC(=O)c2nn(C)cc2[N+](=O)[O-])n1,active: 6.51 µM,
O=C(Nc1cnccn1)Nc1cccc(Cl)c1Cl,"inconclusive [activator, partial curve, poor fit]",
COCCN(CC(=O)Nc1cccc(C)c1C)C(=O)Cn1c(=O)cnc2ccccc21,"inconclusive [activator, single point]",
COc1ccc(C(=O)NC(C)c2nc3ccccc3[nH]2)cc1OC (stereo not drawn),"inconclusive [activator, partial curve, poor fit]",
CCOC(=O)c1nc2sc3c(c2c(=O)[nH]1)CCC(C)C3 (stereo not drawn),"inconclusive [activator, single point]",
COc1cc(C2c3cc4c(cc3OC(C)(N3CCCC3)C2C)OCO4)cc(OC)c1OC (stereo not drawn),active: 0.651 µM,
COc1ccccc1NS(=O)(=O)c1cc(NC(=O)c2ccc(Cl)nc2)ccc1N1CCCC1,inactive,
CC1CCC(NC(=O)CCS(=O)(=O)c2ccc3c(c2)CCN3C(=O)C2CC2)CC1 (stereo not drawn),inactive,
O=c1[nH]c(=O)n(Cc2ccccc2)c2nc(-c3ccc(C(F)(F)F)cc3)n(CCO)c12,"inconclusive [activator, single point]",

SMILES,Potency,"activity, positive = re-replication"
COc1cccc(/C=N/NC(=O)c2c(C)nc3ccc(Cl)cn23)c1O,"inconclusive [activator, full curve]",
Cc1sc(NC(=O)C2CCCCC2C(=O)O)c(C(N)=O)c1-c1ccc(C(C)(C)C)cc1 (stereo not drawn),"inconclusive [activator, partial curve, poor fit]",
O=C1NC(=S)SC1=Cc1ccc2c(c1)OCO2,"inconclusive [activator, partial curve, poor fit]",
COc1cc(-c2noc(C)c2C#Cc2ccsc2)cc(OC)c1OC,"inconclusive [activator, partial curve, poor fit]",
Cc1ccc(NC(=O)CS(=O)Cc2nc(-c3ccc(C)cc3)oc2C)cc1 (stereo not drawn),inactive,
COc1cc(/C=C/[N+](=O)[O-])ccc1OC(=O)/C=C/c1ccc(F)cc1,inactive,
COc1cc(C(=O)NCC(=O)N/N=C(\C)Cc2ccccc2)cc(OC)c1OC,inactive,
CC(C)Cn1c(=O)n(C)c(=O)c2[nH]cnc21,"inconclusive [activator, partial curve, poor fit]",
CC1CCCC(C)N1C(=O)c1ccc(S(=O)(=O)NCc2ccco2)cc1 (stereo not drawn),inactive,
COc1ccc(-n2nc(C(=O)NCC(=O)N3CC(C)CC(C)C3)c3ccccc3c2=O)cc1OC (stereo not drawn),"inconclusive [activator, single point]",
COc1ccc(Cn2cccc(NC(=O)Nc3ccc(F)cc3)c2=O)cc1,"inconclusive [activator, partial curve, poor fit]",
Cc1ccc(-c2ccc(=O)n(CC(=O)NCCN(CC(C)C)CC(C)C)n2)cc1,inactive,
COn1c(-c2ccccc2)nc2ccc(Cl)cc21,"inconclusive [activator, partial curve, poor fit]",
C[C@H](NC(=O)c1nc[nH]c1C(=O)N[C@@H](C)C(=O)OC(C)(C)C)C(=O)OC(C)(C)C,"inconclusive [activator, single point]",
O=C(Oc1cc2oc(=O)cc(-c3ccccc3)c2cc1Cl)C1CCCCC1,"inconclusive [activator, single point]",
COc1ccc(C(C)=O)cc1CSC(=N)N,"inconclusive [activator, partial curve, poor fit]",
COc1ccc(Oc2ccccc2C=O)cc1,"inconclusive [activator, single point]",
CC(C)(C)OC(=O)C[C@@H]1C/C=C\C[C@@H](CC(=O)NCCO)C(=O)N2CCC[C@H]2COC1=O,"inconclusive [activator, single point]",
CCCCOc1cc(CC2CNC(=O)N2)ccc1OC (stereo not drawn),"inconclusive [activator, single point]",
O=C(Nc1ccccc1F)Nc1ccccc1N1CCCCC1,"inconclusive [activator, partial curve, poor fit]",
CC(C(=O)N=Nc1c(O)[nH]c2ccccc12)n1cnc2ccccc2c1=O (stereo not drawn),"inconclusive [activator, partial curve, poor fit]",
CN1CCN(C(c2cccc(Cl)c2)c2ccccc2Cl)CC1 (stereo not drawn),"inconclusive [activator, single point]",
